Data on 52 compounds can be found in PubChem BioAssay AID1645887 (National Center for Advancing Translational Sciences (NCATS), 2021).

Each structure is given as a SMILES string. Several values for one entry are separate records, joined by “and”; a condition that tells them apart may be missing. Equal values may be shown once. About 40 (0.2%) of roughly 16,000 compounds were called active. Inconclusive results (about 1%) are left out. The call rests on the fitted dose curve; in most records, active means well fitted activation curve with a large enough effect; inconclusive means small, poorly fitted or top-dose-only effect, or another doubt; inactive means no such curve, though single readings can be large or run the other way. The list shows a part of the results.
On the % scale 0 is the no-effect control and ±100 the full control effect.

Sequence of UniProt Q8WZA2 (Q8WZA2 whole entry, looked up): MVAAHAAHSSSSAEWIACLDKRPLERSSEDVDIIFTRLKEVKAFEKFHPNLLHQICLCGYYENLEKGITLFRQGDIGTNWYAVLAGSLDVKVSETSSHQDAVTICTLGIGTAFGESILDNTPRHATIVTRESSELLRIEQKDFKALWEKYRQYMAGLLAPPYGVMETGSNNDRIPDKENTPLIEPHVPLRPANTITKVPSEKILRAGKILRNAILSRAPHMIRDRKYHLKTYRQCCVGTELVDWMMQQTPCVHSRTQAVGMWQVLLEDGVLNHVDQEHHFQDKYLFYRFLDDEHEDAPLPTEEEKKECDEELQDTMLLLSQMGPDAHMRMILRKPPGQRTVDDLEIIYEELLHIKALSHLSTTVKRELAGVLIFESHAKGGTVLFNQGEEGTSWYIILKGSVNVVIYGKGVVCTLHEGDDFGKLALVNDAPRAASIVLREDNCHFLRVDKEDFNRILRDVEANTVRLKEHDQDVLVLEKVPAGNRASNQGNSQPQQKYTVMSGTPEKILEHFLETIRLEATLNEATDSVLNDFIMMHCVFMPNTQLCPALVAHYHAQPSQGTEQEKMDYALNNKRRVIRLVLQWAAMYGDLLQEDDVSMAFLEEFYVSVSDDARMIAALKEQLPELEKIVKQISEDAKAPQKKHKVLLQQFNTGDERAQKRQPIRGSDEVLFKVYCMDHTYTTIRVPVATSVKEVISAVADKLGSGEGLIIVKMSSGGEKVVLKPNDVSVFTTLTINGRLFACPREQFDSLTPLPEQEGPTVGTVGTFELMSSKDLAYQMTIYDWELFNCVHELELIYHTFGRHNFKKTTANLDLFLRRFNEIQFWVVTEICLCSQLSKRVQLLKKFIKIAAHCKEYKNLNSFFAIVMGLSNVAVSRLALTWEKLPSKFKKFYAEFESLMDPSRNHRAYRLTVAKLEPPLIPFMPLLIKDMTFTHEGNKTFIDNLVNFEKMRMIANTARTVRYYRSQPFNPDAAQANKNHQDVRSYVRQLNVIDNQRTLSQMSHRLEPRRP

The target of the experiment is Rap guanine nucleotide exchange factor 4 (Homo sapiens) (UniProt Q8WZA2). Nature of the experiment: Validation qHTS for agonist of cAMP-regulated guanine nucleotide exchange factor 4 (EPAC2).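 Further: exchange makes BODIPY-GDP fluorescence drop when released from Rap1B; series mostly up to about 150 µM.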 Particulars: EPAC2 Rap1B BODIPY-GDP exchange, fluorescence; activation: stronger effect = higher value. The method in brief:
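Fluorescent exchange assay: 100 nM EPAC2 with 250 nM RAP1B-BODIPY-GDP and 50 uM GDP; compound added, 5 min at room temperature, then read (ex 480/em 540 nm) every 5 min for 30 min. Normalized to 6.5 mM cAMP agonist control.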
(In general: qHTS replaces the single test concentration by a dilution series.)
For `COc1ccccc1CNc1ncnc2ccc(-c3c(C)noc3C)cc12`, the activation was inactive: 1.62%.

With `CC(C)c1c(C(=O)NC(c2cccnc2)C(F)(F)F)cnn1-c1nccc(-c2cccs2)n1` (configuration not stated), the activation was inactive: -5.04%.

As for `CC(C(=O)O)c1cccc(Oc2ccccc2)c1` (configuration not stated), the activation was inactive: -2.76% and inactive: -10.6%.

Turning to `CCC1CN(Cc2cccn2-c2ccccn2)Cc2cc(OC)ccc2O1` (configuration not stated), the activation was inactive: -10.9%.

Turning to `CCn1c(-c2cccc(OC)c2)nc2cc(NC(C)=O)cc(C(=O)N3CCCC(C(C)=O)C3)c21` (configuration not stated), the activation is inactive: -22.1%.

As for `O=C(Nc1cccc(F)c1)N1CC[C@@]2(CCCN(C(=O)c3ccncc3)C2)C1`, the activation is inactive: -2.29%.

With `O=C(C[n+]1ccnc2ccccc21)c1ccc(Br)cc1`, the activation was inactive: -29.6%.

For `O=C(Nc1cccc(F)c1)N1CC[C@@]2(CCCN(C(=O)c3cc(C(F)(F)F)cc(C(F)(F)F)c3)C2)C1`, the activation is inactive: -26.4%.

With `CC(C)c1c(C(=O)N(C)C2CCN(C)CC2)cnn1-c1nccc(-c2ccco2)n1`, the activation is inactive: -6.08%.

For the compound `COc1ccc(/C=N/NC(=O)c2ccncc2)cc1OC`, the activation was inactive: -10.5%.

With `COC(=O)N1CCC2(CC1)CN(C(c1ccccc1)c1ccccc1)C2`, the activation is inactive: 11.6%.

As for `COc1cc(C(=S)N2CCOCC2)ccc1O`, the activation is inactive: -5.22%.

Regarding `O=C1OC(c2ccc(O)cc2)(c2ccc(O)cc2)c2ccccc21`, the activation was inactive: 2.69% and inactive: -5.77%.

Consider `O=S1(=O)CCOCCCN1Cc1ccc(F)cc1`, for which the activation is inactive: -5.75%.

Regarding `COc1ccc2c(C)cc(=O)oc2c1`, the activation is inactive: -2.12%.

On to `C=C[C@@H]1c2cc(C)ccc2N(S(=O)(=O)c2ccc(C)cc2)[C@H](c2ccc(C(C)(F)F)cc2)C1(C#N)C#N`, for which the activation was inactive: -11.1%.

Take `COC(=O)N1CCC2(CCCN(C(=O)Nc3cccc(C#N)c3)C2)CC1`: the activation is inactive: -4.53%.

Regarding `CCCc1ncc(C[n+]2ccccc2C)c(N)n1`, the activation was inactive: -1.43% and inactive: -14.7%.

Take `N#Cc1cccc(NC(=O)N2CC[C@@]3(CCCNC3)C2)c1`: the activation was inactive: 8.96%.

As for `CCCCCCCCCCCCCCCC(=O)NCC(COP(=O)([O-])OCC[N+](C)(C)C)OCC` (configuration not stated), the activation was inactive: -69.1%.

As to `CS(=O)(=O)N1CCC2(CC1)CN(Cc1cc(C(F)(F)F)cc(C(F)(F)F)c1)C2`, the activation is inactive: -12.4%.

For the compound `COc1ncc2nc(-c3cn(C)c4ccccc34)c(=O)n(-c3ccccc3)c2n1`, the activation is inactive: 10.4%.

As to `Cc1nc2cnc(N(C)C)nc2n(-c2ccccc2)c1=O`, the activation was inactive: -2.69%.

As to `CC1(C)C(=O)C2C[C@]3(O)C4=CC(=O)OC(c5ccoc5)[C@]4(C)CCC3[C@](C)(C2=O)C1CC(=O)O` (some centres not stated), the activation was inactive: 10.9%.

As to `CO/N=C(\C(=O)N[C@@H]1C(=O)N2C(C(=O)O)=CCS[C@H]12)c1csc(N)n1`, the activation is inactive: 1.75%.

Regarding `O=C1NC(=O)C(c2ccccc2[N+](=O)[O-])=C1Nc1ccc(O)c(Cl)c1`, the activation is inactive: -18.9% and inactive: 0.687% and inactive: 17.2%.

Take `CC(=O)c1ccccc1-c1ccc2c(c1)CC(CNC(=O)c1cc(C)on1)O2` (configuration not stated): the activation was inactive: -28.1%.

On to `CC(C)Cc1nc2cc(NS(=O)(=O)N(C)C)cc(C(=O)N3CCc4sccc4C3)c2n1C`, for which the activation is inactive: -1.35%.

Turning to `Cc1c(C(=O)NCc2ccc(F)cc2)sc2ncnc(NCC3CCCO3)c12` (configuration not stated), the activation was inactive: -21.4%.

In the case of `O=C(O)[C@H]1CCCN1`, the activation is inactive: -0.0689%.

On to `Cc1ncc2c(c1CNC(=O)c1ccc3c(c1)OCO3)CCN(C(=O)c1coc3c1C(=O)CCC3)C2`, for which the activation is inactive: -2.1%.

`CCCCCCCCCCCCCCCC[n+]1ccc(/C=C/c2c[nH]c3ccccc23)c2ccccc21`: the activation is inactive: -69.4%.

Take `N#C/C(=C\c1ccc(O)c(O)c1)C(=O)Nc1ccccc1`: the activation is inactive: 9.69% and inactive: -18.8%.

Consider `COc1ccc([N+](=O)[O-])c2c1CCN2C(=O)CC[C@H](N)C(=O)O`, for which the activation was inactive: -5.13%.

With `Cc1ccccc1C(=O)N1CCc2c(cnc(C)c2CNC(=O)c2ccc3c(c2)OCO3)C1`, the activation was inactive: -7.83%.

As to `CCN(CC)Cc1ccc(Nc2ccnc3cc(Cl)ccc23)cc1O`, the activation was inactive: 1.42%.

With `CN1Cc2c(C(=O)OC(C)(C)C)ncn2-c2ccsc2C1=O`, the activation was inactive: -1.73%.

Take `COc1cccc(N2[C@@H](CC(C)=O)c3ccccc3S2(=O)=O)c1`: the activation was inactive: 1.65%.

For `CN(C)c1ncc2nc(-c3ccccc3)c(=O)n(C[C@H]3CCCO3)c2n1`, the activation is inactive: -6.44%.

For `COc1ccc(CNc2ncnc3ccc(-c4ccc(C(=O)N(C)C)cc4)cc23)c(OC)c1`, the activation was inactive: -0.17%.

As for `Brc1c(Br)c(Br)c2[nH]cnc2c1Br`, the activation was inactive: -20.4%.

For the compound `c1nc(N2CCNCC2)c2cc(-c3ccoc3)ccc2n1`, the activation was inactive: -0.0801%.

For the compound `Cc1c(Cl)cccc1Nc1ccccc1C(=O)O`, the activation is inactive: 4.68%.

In the case of `COc1ccccc1-c1nc(N(C)Cc2ccco2)c2ccccc2n1`, the activation is inactive: -2.34%.

As for `Cc1cc2c(c(-c3cnccn3)c1)OC(CNC(=O)c1ccc(-n3nc(C)cc3C)cc1)C2` (configuration not stated), the activation was inactive: -7.18%.

With `CC(Oc1ccc(O)cc1)(P(=O)(O)O)P(=O)(O)O`, the activation is inactive: -19.5%.

In the case of `COc1cc(=O)n2c(c1C(=O)NCc1ccsc1)CCN(Cc1nc3ccccc3[nH]1)CC2`, the activation was inactive: 4.16%.

Regarding `CC[C@@H](C(=O)O)[C@@H]1O[C@@H]([C@@H](C)[C@H](O)[C@H](C)C(=O)[C@H](CC)[C@H]2O[C@]3(C=C[C@@H](O)[C@]4(CC[C@@](C)([C@H]5CC[C@](O)(CC)[C@H](C)O5)O4)O3)[C@H](C)C[C@@H]2C)[C@@H](C)C[C@@H]1C`, the activation was inactive: -13%.

On to `COc1ccccc1-c1nccc(Nc2ccc(F)cc2)n1`, for which the activation was inactive: -14.4%.

Take `O=C(Nc1cc(C(=O)NC2CCOCC2)c2c(c1)ncn2C1CCCC1)c1ccccc1`: the activation was inactive: -9.67%.

As for `COc1cc(=O)n2c(c1C(=O)N(C)Cc1cscn1)CCN(C(=O)c1ccc(C)cc1C)CC2`, the activation is inactive: -3.32%.

For `Cc1ccc(N(CC2=NCCN2)c2cccc(O)c2)cc1`, the activation is inactive: -6.85% [middle of 5 runs].
